In PMC4336329 (PLoS ONE, 2015):
In all, about 310,000 compounds went through this assay and about 2,200 (0.71%) showed an effect of 50% or more. The effect is printed as a negative number. The list shows a part of the results.

The compounds below were run against human ether-à-go-go-related gene (hERG) potassium channel (human, UniProt Q12809) (assay: primary screen, population patch clamp on CHO cells stably expressing hERG).
human ether-à-go-go-related gene (hERG) potassium channel, sequence (Q12809 whole entry, looked up): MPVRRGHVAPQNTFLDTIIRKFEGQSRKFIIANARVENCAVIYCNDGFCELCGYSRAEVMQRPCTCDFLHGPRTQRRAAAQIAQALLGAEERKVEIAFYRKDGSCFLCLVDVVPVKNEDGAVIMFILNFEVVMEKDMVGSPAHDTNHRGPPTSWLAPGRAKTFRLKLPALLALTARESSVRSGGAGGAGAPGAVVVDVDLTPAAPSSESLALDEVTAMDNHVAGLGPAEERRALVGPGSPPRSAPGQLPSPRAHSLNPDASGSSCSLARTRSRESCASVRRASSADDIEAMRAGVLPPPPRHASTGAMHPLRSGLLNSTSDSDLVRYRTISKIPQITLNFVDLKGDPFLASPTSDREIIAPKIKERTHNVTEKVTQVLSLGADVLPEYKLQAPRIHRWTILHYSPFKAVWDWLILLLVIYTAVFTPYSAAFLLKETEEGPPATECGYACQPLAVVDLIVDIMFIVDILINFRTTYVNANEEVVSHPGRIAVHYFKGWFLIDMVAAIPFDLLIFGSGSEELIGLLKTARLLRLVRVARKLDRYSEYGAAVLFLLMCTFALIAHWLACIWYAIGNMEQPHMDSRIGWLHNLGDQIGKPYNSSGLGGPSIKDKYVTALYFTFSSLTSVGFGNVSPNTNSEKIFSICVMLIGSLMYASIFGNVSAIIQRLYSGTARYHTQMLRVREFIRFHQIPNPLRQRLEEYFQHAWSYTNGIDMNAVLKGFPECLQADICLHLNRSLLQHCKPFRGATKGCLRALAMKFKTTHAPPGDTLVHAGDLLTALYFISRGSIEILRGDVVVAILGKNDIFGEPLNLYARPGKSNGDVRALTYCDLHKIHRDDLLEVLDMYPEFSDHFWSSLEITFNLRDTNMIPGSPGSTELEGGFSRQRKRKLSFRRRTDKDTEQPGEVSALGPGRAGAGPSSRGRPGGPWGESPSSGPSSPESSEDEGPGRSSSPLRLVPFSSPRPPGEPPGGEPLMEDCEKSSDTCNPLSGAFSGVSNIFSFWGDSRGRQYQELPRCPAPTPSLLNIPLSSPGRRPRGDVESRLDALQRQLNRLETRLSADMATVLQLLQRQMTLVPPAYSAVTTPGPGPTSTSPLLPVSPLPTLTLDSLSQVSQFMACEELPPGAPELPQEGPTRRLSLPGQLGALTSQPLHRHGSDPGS

Going from `COC(=O)c1ccc(-c2ccc(OC)c([C@H]3[C@H]4C=CC[C@@H](C)[C@@H]4C(=O)N3Cc3ccccc3)c2)cc1` to `COc1ccccc1C(=O)COC(=O)c1c(-c2ccccc2)noc1C`, the “hERG current change (%, negative = inhibition) at 1uM” value falls from 18.5% to 7.08%.

First: O=C1CCC/C(=N\NC(=O)c2ccc(NS(=O)(=O)c3ccc(Br)cc3)cc2)C1
Second: O=C(NCc1ccco1)c1ccc(NS(=O)(=O)c2cccc(F)c2)cc1
The “hERG current change (%, negative = inhibition) at 1uM” value of the first is lower: 5.71% for the first, 14.4% for the second.

Going from `O=C(Nc1nsc(-c2ccccc2)n1)c1cccs1` to `O=C(NCCc1cn2ccccc2n1)c1ccccc1F`, the “hERG current change (%, negative = inhibition) at 1uM” value rises from -0.383% to 2.41%.

Going from `CC(C)Oc1ccc(OCCn2c(S(=O)(=O)O)nc3c(N)ncnc32)cc1` to `CC(C)NS(=O)(=O)c1ccc(OCC(=O)NCc2cccnc2)cc1`, the “hERG current change (%, negative = inhibition) at 1uM” value falls from 15.3% to -5.98%.

First: O=S(=O)(c1cccc(-c2nnc(SCc3nc4ccccc4s3)o2)c1)N1CCOCC1
Second: O=S(=O)(c1cccc2nsnc12)N1CCN(C/C=C\c2ccccc2)CC1
The “hERG current change (%, negative = inhibition) at 1uM” value of the first is lower: -2.26% for the first, -0.838% for the second.

Going from `O=C(NCCn1cc(SCc2ccccc2F)c2ccccc21)c1c(F)cccc1F` to `CC(C)OC(=O)CSc1nc(Cc2ccccc2)nc2ccccc12`, the “hERG current change (%, negative = inhibition) at 1uM” value falls from 13.7% to 11.5%.

Going from `Cc1cccc2c(=O)c(Br)c(C)n(Cc3ccccc3)c12` to `Nc1c(N(Cc2ccccc2)C(=O)CCc2ccccc2)c(=O)[nH]c(=O)n1Cc1ccccc1`, the “hERG current change (%, negative = inhibition) at 1uM” value falls from 17% to 4.72%.

Going from `Cc1c(Cl)cccc1NC(=O)CSC(N)=O` to `Cc1cc(C)cc(NC(=O)c2ccccc2NC(=O)CCC(=O)O)c1`, the “hERG current change (%, negative = inhibition) at 1uM” value falls from 13.1% to 7.41%.

Going from `COC(=O)C1=C(c2ccc(F)cc2F)C[C@@H]2CC[C@H]1N2C(=O)NCCNC(C)=O` to `CN(CCNC(=O)C1CC(=O)N(C2CCCC2)C1)Cc1ccccc1` (stereo not drawn), the “hERG current change (%, negative = inhibition) at 1uM” value falls from 16.3% to 2.28%.

Compared with `O=C(CCCn1c(=S)[nH]c2cc3c(cc2c1=O)OCO3)N1CCN(c2ccc(F)cc2)CC1`, `CCCC(=O)N1CCN(c2nc3ccc(CC)cc3s2)CC1` is higher in “hERG current change (%, negative = inhibition) at 1uM” value: 2.68% for the first, 4.32% for the second.

First: Cc1cccc(Oc2coc3cc(O)ccc3c2=O)c1
Second: Cc1ccc(O)c(-c2cc3ccccc3[nH]2)c1
The “hERG current change (%, negative = inhibition) at 1uM” value of the first is higher: 5.43% for the first, 3.37% for the second.

Going from `Cc1cccc(N2C(=O)/C(=C/c3ccc(CN(CCC#N)S(C)(=O)=O)o3)C(=O)NC2=S)c1` to `Cc1ccc([C@@H]2[C@@H]3C(=O)N(C)C(=O)[C@@H]3[C@@H]3C(=O)Nc4ccccc4C(=O)N23)cc1`, the “hERG current change (%, negative = inhibition) at 1uM” value rises from 7.33% to 10.1%.

Compared with `COc1cc(C(=O)Nn2c(CC(C)C)nc3ccccc3c2=O)cc(OC)c1OC`, `COc1cc(NC(=O)C2=CC(c3cccs3)=NS(=O)(=O)N2C)cc(OC)c1OC` is lower in “hERG current change (%, negative = inhibition) at 1uM” value: 11.4% for the first, 1.67% for the second.

Compared with `Cc1cc(C)n(CC(C)NCc2cn[nH]c2-c2ccc(C)c(C)c2)n1` (stereo not drawn), `CCOc1ccc(Cn2nnc(C(=O)Nc3cc(C)cc(C)c3)c2N)cc1` is higher in “hERG current change (%, negative = inhibition) at 1uM” value: -7.72% for the first, 9.04% for the second.

First: C#CCN1C(=O)C(O)(CC(=O)c2ccc3c(c2)OCCO3)c2ccccc21 (stereo not drawn)
Second: CCOc1cc(/C=N/NC(=O)c2ccc3c(c2)OCCO3)cc(Br)c1O
The “hERG current change (%, negative = inhibition) at 1uM” value of the first is higher: 15.6% for the first, 7.91% for the second.

Compared with `CC(C)c1nnc(NC(=O)CCC(=O)N2CCC(Cc3ccccc3)CC2)s1`, `CC(=O)Nc1ccc(NC(=O)C2CCN(c3c(Cc4ccccc4)c(C)nc4ncnn34)CC2)cc1` is lower in “hERG current change (%, negative = inhibition) at 1uM” value: 12.5% for the first, 7.31% for the second.

Going from `CCOc1cc(OCC)nc(S(C)(=O)=O)n1` to `CCOc1cc(CNc2ncc(-c3ccc(OC)cc3)n2C)ccc1O.O=C(O)C(=O)O`, the “hERG current change (%, negative = inhibition) at 1uM” value falls from -0.936% to -4.24%.

Compared with `Cl.c1ccc2c(c1)N1CCCN=C1N2CCN1CCCCC1`, `Cc1ccc2[nH]c(C(=O)NCCN3CCCC3)cc2c1.Cl` is higher in “hERG current change (%, negative = inhibition) at 1uM” value: -26.2% for the first, 11.2% for the second.

Going from `Cc1cc(=O)oc2cc(OCC(O)CN3CCc4ccccc4C3)ccc12` (stereo not drawn) to `COc1ccc(C2Nc3ccc4ccccc4c3-c3c2c(=O)oc2ccccc32)cc1` (stereo not drawn), the “hERG current change (%, negative = inhibition) at 1uM” value rises from -14.7% to 7.65%.

Going from `Cc1cc2cc(CNC(=O)C3CCCC3)ccc2n1C` to `COc1cccc(-c2nnc(NC(=O)C3CCCCC3)o2)c1`, the “hERG current change (%, negative = inhibition) at 1uM” value rises from 12.2% to 12.8%.

Compared with `COc1ccc(C2CC(c3cccs3)n3nc(N)nc3N2)cc1` (stereo not drawn), `COc1ccc(C(O)c2nc3ccccc3s2)cc1` (stereo not drawn) is higher in “hERG current change (%, negative = inhibition) at 1uM” value: -15.2% for the first, 13.7% for the second.

Going from `Cc1cc(C(=O)Nc2cccc(-c3ccc(N4CCOCC4)nn3)c2)ccc1[N+](=O)[O-]` to `O=C(c1cc(F)c(F)cc1Cl)N1CCN(c2ccc([N+](=O)[O-])c3ncccc23)CC1`, the “hERG current change (%, negative = inhibition) at 1uM” value falls from 10.7% to -53.6%.

First: O=S(=O)(NCC1CCCO1)c1ccc(Cl)nc1 (stereo not drawn)
Second: Cc1ccccc1S(=O)(=O)NCC1CCCO1 (stereo not drawn)
The “hERG current change (%, negative = inhibition) at 1uM” value of the first is lower: 9.23% for the first, 13.5% for the second.

First: CCOC(=O)C1(CCOc2ccccc2)CCN(Cc2ccc(OCCO)cc2)CC1
Second: COc1ccc(OCC(=O)O/N=C(\N)Cc2ccc(Cl)cc2)cc1
The “hERG current change (%, negative = inhibition) at 1uM” value of the first is lower: -85.1% for the first, 8.82% for the second.

Compared with `O=S(=O)(c1cccc2nsnc12)N1CCN(C/C=C/c2ccccc2)CC1`, `CC1=C(/C=C/c2ccccc2)CCN(C)C1.Cl` is higher in “hERG current change (%, negative = inhibition) at 1uM” value: -14.8% for the first, 0.456% for the second.

Compared with `CC1=C(C)CC(C(=O)N2CCN(Cc3ccc4c(c3)OCO4)CC2)C(C(=O)O)C1` (stereo not drawn), `Cc1nnc(NC(=O)C2CCN(S(=O)(=O)c3cc([N+](=O)[O-])ccc3Cl)CC2)o1` is lower in “hERG current change (%, negative = inhibition) at 1uM” value: 16.5% for the first, -2.02% for the second.

Going from `C(=N\Nc1nc(Nc2ccccc2)nc(N2CCOCC2)n1)/c1c[nH]c2ccccc12` to `O=c1[nH]c(SCCN2CCOCC2)nc(O)c1-c1ccccc1`, the “hERG current change (%, negative = inhibition) at 1uM” value rises from 2.26% to 14%.

Going from `Cc1ccc(CNC(=O)c2ccc(CNS(=O)(=O)c3ccc4c(c3)C(C)(C)C(=O)N4C)cc2)o1` to `CC1CCN(c2c(NCc3ccc(C(=O)NCc4cccnc4)cc3)c(=O)c2=O)CC1`, the “hERG current change (%, negative = inhibition) at 1uM” value rises from -1% to 13.4%.

First: C/C(=N/NC(=O)c1ccoc1C)C12CC3CC(CC(C3)C1)C2
Second: CCOC(=O)C1=C(N)OC2=C(C(=O)CC(C)(C)C2)C1c1ccc(CC)s1 (stereo not drawn)
The “hERG current change (%, negative = inhibition) at 1uM” value of the first is higher: 12.6% for the first, 11.2% for the second.

Compared with `O=C(CCl)Nc1nccs1`, `C=CCNC(=O)/C(C#N)=C/c1ccccc1Cl` is higher in “hERG current change (%, negative = inhibition) at 1uM” value: 8.92% for the first, 17% for the second.

First: Cc1ccc(N2C(=O)CC(NCC3CCCO3)C2=O)cc1 (stereo not drawn)
Second: Cc1ccc(N(C(=O)Cn2nnc(-c3ccc(F)cc3)n2)C(CC(C)C)C(=O)NCC2CCCO2)cc1 (stereo not drawn)
The “hERG current change (%, negative = inhibition) at 1uM” value of the first is higher: 25.5% for the first, 5.31% for the second.

Compared with `Cl.NCC1CCC(C(=O)Oc2ccc(CCC(=O)O)cc2)CC1` (stereo not drawn), `O=C(CNc1ccccc1C(=O)O)c1ccccc1` is higher in “hERG current change (%, negative = inhibition) at 1uM” value: 16% for the first, 18.2% for the second.

First: COc1cc([N+](=O)[O-])ccc1NC(=O)CC1SC(=Nc2ccc(F)cc2)N(CCC2=CCCCC2)C1=O (stereo not drawn)
Second: O=[N+]([O-])c1ccc(COc2cccc(CNc3ccc(Br)cc3)c2)cc1
The “hERG current change (%, negative = inhibition) at 1uM” value of the first is higher: 3.47% for the first, -2.42% for the second.

Compared with `Nc1nc(N)c2nc(-c3ccccc3)c(N)nc2n1`, `c1ccc(-n2nnnc2Oc2ccc(-c3nnco3)cc2)cc1` is lower in “hERG current change (%, negative = inhibition) at 1uM” value: -0.772% for the first, -2.51% for the second.

Compared with `Cc1ccc(CNC(=O)c2ccc(N3CCC4(CC3)CC(c3cccc(Br)c3)=NO4)c(NC(=O)c3cccc(C)c3)c2)cc1`, `CCOC(=O)c1c(-c2ccc(C)cc2)csc1NC1=NS(=O)(=O)c2ccccc21` is lower in “hERG current change (%, negative = inhibition) at 1uM” value: 8.49% for the first, 7.83% for the second.

Compared with `Cc1sc2nc(C(C)C)nc(SCC(=O)N3c4ccccc4CC3C)c2c1C` (stereo not drawn), `Cc1ccc(CSc2nn3c(=O)c(C)nnc3s2)cc1` is lower in “hERG current change (%, negative = inhibition) at 1uM” value: 15.4% for the first, -10.7% for the second.

Compared with `COc1cccc(-c2cc(C(F)(F)F)nc(NCc3ccco3)n2)c1`, `COc1cccc2cc(-c3cn4ccc(C)cc4n3)c(=O)oc12` is lower in “hERG current change (%, negative = inhibition) at 1uM” value: 14.3% for the first, 12.1% for the second.

First: COC(=O)C1=C(O)/C(=C/c2cccc(OC)c2O)N=C1C
Second: COC(=O)c1cc(N=Cc2c(O)c3ccccc3oc2=O)cc(C(=O)OC)c1
The “hERG current change (%, negative = inhibition) at 1uM” value of the first is higher: 24.1% for the first, 19.8% for the second.

Going from `Cc1cc(C(F)(F)Cl)n2ncc(-c3ccccn3)c2n1` to `c1cnc2ccc(C(c3nnnn3C3CCCCC3)N3CCCCC3)cc2c1` (stereo not drawn), the “hERG current change (%, negative = inhibition) at 1uM” value falls from 13.1% to 1.89%.

Compared with `O=C(CO)C(O)C(O)C(O)CO` (stereo not drawn), `CC(C)N(C)CCOC(=O)c1ccccc1Cl.Cl` is lower in “hERG current change (%, negative = inhibition) at 1uM” value: 12.7% for the first, 1.85% for the second.

First: CC1CCCC(NC(=O)CN(C)S(=O)(=O)c2cccc3cccnc23)C1C (stereo not drawn)
Second: C=CCN(CC=C)C(=O)CN1C(=O)NC(C)(c2ccc3cc(OC)ccc3c2)C1=O (stereo not drawn)
The “hERG current change (%, negative = inhibition) at 1uM” value of the first is lower: 0.895% for the first, 11.5% for the second.

First: CCOc1ccc2oc(C(=O)N(CC)CC(=O)Nc3ccc(NC(C)=O)cc3)c(C)c2c1
Second: CCN(CC)CCCN=Cc1c(O)n(-c2ccc(C)cc2)c(=O)c2ccccc12
The “hERG current change (%, negative = inhibition) at 1uM” value of the first is lower: -4.7% for the first, 15.2% for the second.

Compared with `N#C/C(=C\c1ccc(O)c(O)c1)C(=O)NCc1ccccc1`, `O=C(NCC1CCCO1)c1cnn2c(C(F)F)cc(C3CC3)nc12` (stereo not drawn) is higher in “hERG current change (%, negative = inhibition) at 1uM” value: -5.15% for the first, 8.03% for the second.

In the case of `COCCCC1CCN(C(=O)C2CCC(=O)N(CC3CCCCC3)C2)CC1` (stereo not drawn), the “hERG current change (%, negative = inhibition) at 1uM” value is reported as 2.85%.
